Out of some 44,000 compounds screened, about 340 (0.77%) were called active. The inconclusive results got no clear call from the source; some entries with a clear call stand among them for comparison. The call rests on the fitted dose curve; in most records, active means well fitted inhibition curve with a large enough effect; inconclusive means small, poorly fitted or top-dose-only effect; inactive means flat fitted curve, though single readings scatter. Potencies of inconclusive entries are left out as doubtful fits.
Experiment: Acumen qHTS Assay for Inhibitors of the mTORC1 Signaling Pathway in MEF (Tsc2-/-, p53-/-) Cells: Sytravon; further: nearly all actives have a fitted effect of over 50% in size;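 on activity change, negative = inhibition: plate controls were DMSO for no effect and rapamycin for full effect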
Settings: phospho-rpS6 immunofluorescence/PI, 24 h; series mostly up to 38.3 µM; activity change, negative = inhibition: at the top concentration
How it was run: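 Plate MEFs (Tsc2-/-, p53-/-, empty vector) in DMEM/10% FBS; after 24 h add compound, incubate 24 h at 37 degree Celsius; fix in PFA/TX-100, block, stain phospho-rpS6 and 10 uM PI; scan at 488 nm; report % positive cells.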
Potency means the concentration at half of the fitted maximal effect; tags describe the fitted curve by direction and shape.

SMILES | Potency | activity change, negative = inhibition
CC1CCn2c(nc3cc(C(=O)NCc4ccc(OC(C)C)cc4)ccc32)C1 (centres undefined) | inconclusive [falling, single point] | –
COc1ccc(Cn2ccc3nc(C)c(C(=O)N4CCN(c5ccc(OC)cc5)CC4)cc3c2=O)cc1 | inconclusive [falling, partial curve, poor fit] | –
CCCOc1ccc(CNC(=O)CCCn2nc(C)c3sc4ccccc4c3c2=O)cc1 | inconclusive [falling, partial curve] | –
CCN(CC)CCNC(=O)c1cn(CCOC)c(=O)c2c1c1ccccc1n2C | inconclusive [falling, single point] | –
CCS(=O)(=O)c1ncc(Cl)c(C(=O)Nc2c(C(=O)Nc3cccc(C)c3)oc3ccccc23)n1 | inconclusive [falling, partial curve, poor fit] | –
COc1ccccc1N1CCN(C(CNC(=O)C(=O)NCc2ccc(F)cc2)c2cccnc2)CC1 (centres undefined) | inconclusive [falling, single point] | –
Cc1ccc(NC(=O)c2cc(S(=O)(=O)NC3CCCCC3)ccc2F)cc1Cl | inconclusive [falling, single point] | –
Cc1ccc(-c2nnc(Nc3ccc(F)cc3)c3ccccc23)cc1S(=O)(=O)N1CCN(C)CC1 | inconclusive [falling, single point] | –
CCOc1ccc(NC(=O)CCC(=O)N2CCSc3ccccc32)cc1 | inconclusive [falling, single point] | –
Cc1cccc(OCC(=O)N(Cc2ccc(N(C)C)cc2)Cc2ccco2)c1C | inconclusive [falling, single point] | –
COc1ccccc1C1C(C(=O)Nc2ccccc2)=C(C)Nc2nc(-c3ccccc3)nn21 (centres undefined) | inconclusive [falling, partial curve, poor fit] | –
CCCc1cc(=O)[nH]c(SCc2nc(-c3ccccc3)no2)n1 | inconclusive [falling, full curve, poor fit] | –
CCCOc1ccc(CN2C(=O)C(=O)c3cccc(C)c32)cc1 | inconclusive [falling, full curve, poor fit] | –
CC1CCc2noc(NC(=O)c3ccc([N+](=O)[O-])cc3)c2C1 (centres undefined) | inconclusive [falling, single point] | –
CCCn1c(=N)c(C(=O)NCc2ccco2)cc2c(=O)n3cc(C)ccc3nc21 | inconclusive [falling, single point] | –
CCC(=O)Nc1ccc(-c2nc3ncccc3o2)cc1C | – | inactive: 0.236%
COC(=O)c1cc(NC(=O)Cn2ncc3c([nH]c4ccccc43)c2=O)cc(C(=O)OC)c1 | – | inactive: 1.8%
CCCc1nn2c(=O)cc(COC(=O)c3ccccc3NC(=O)c3ccc(OCC)cc3)nc2s1 | – | inactive: -2.09%
O=C(Nc1ccc(Cl)cc1F)c1cc(S(=O)(=O)NC2CCCCCC2)ccc1F | inconclusive [falling, single point] | –
CCOC(=O)c1c(NC(=O)c2ccc(S(=O)(=O)N3CCCC(C)C3)cc2)sc2c1CCN(C(C)C)C2 (centres undefined) | inconclusive [falling, single point] | –
CCNC(=O)c1ccc2nc(Cc3ccccc3)oc2c1 | inconclusive [falling, single point] | –
Cc1cccc(-n2ccnc2SCC(=O)Nc2nc3ccccc3s2)c1 | – | inactive: -0.662%

SMILES | Potency | activity change, negative = inhibition
CCOC(=O)c1ccc(NS(=O)(=O)c2cc(Br)cc3c2N(C(C)=O)C(C)C3)cc1 (centres undefined) | – | inactive: 0.693%
COc1cc(OC)c(NC(=O)N2CCc3c(sc4c3CCCC4)C2c2ccccc2)cc1Cl (centres undefined) | inconclusive [activator, single point] | –
COC(=O)c1ccc2c(=O)n(CCCCCC(=O)N3CCN(c4cc(Cl)ccc4C)CC3)c(=O)[nH]c2c1 | inconclusive [falling, partial curve, poor fit] | –
COc1ccccc1Nc1c2c(nc3ccc(NC(=O)c4cccc(OC)c4OC)cc13)CCCC2 | active: 16.5 µM | –
O=C(Nc1ccc(C(F)(F)F)cc1)C1CCCN(S(=O)(=O)c2cccc3cccnc23)C1 (centres undefined) | inconclusive [falling, single point] | –
O=C(NCc1cccnc1)C(=O)NCC(c1cccnc1)N1CCN(c2ccccc2)CC1 (centres undefined) | inconclusive [falling, partial curve] | –
COC(=O)c1cnc(N2CCN(c3ccccc3OC)CC2)c2ccccc12 | inconclusive [falling, single point] | –
O=C(Nc1c(C(=O)Nc2cccc(C(F)(F)F)c2)oc2ccccc12)c1cc(=O)c2ccccc2o1 | – | inactive: 5%
CCn1c(=O)c2cc(C(=O)NCCCN(C)Cc3ccccc3)sc2c2ccccc21 | inconclusive [falling, single point] | –
O=C(CSc1cn(CCNC(=O)c2ccccc2F)c2ccccc12)Nc1ccc(F)cc1 | inconclusive [falling, single point] | –
CCOc1ccc(CNCc2c(C(=O)O)n(Cc3ccc(OC)cc3)c3ccccc23)cc1 | inconclusive [falling, single point] | –
COc1ccc(-c2nc3c(C#N)c[nH]n3c2NC2CCCC2)cc1 | – | inactive: 0.162%
CC(C)c1ccc2occ(CC(=O)Nc3cccc(C(F)(F)F)c3)c2c1 | inconclusive [falling, single point] | –
CCc1ccc(NC(=O)c2ccc3c(O)c(S(=O)(=O)c4ccccc4)c(=O)[nH]c3c2)cc1 | – | inactive: -7.18%
O=C(NCC1CCN(Cc2ccccc2Cl)CC1)c1cc2ccc3cccnc3c2[nH]1 | inconclusive [falling, single point] | –
Cc1ccc2scc(N3CCN(c4cccc(C(F)(F)F)c4)CC3)c(=O)c2c1 | – | inactive: 2.66%
CC(C)c1ccc(NC(=O)C2Cc3ccccc3N2C(=O)c2ccccc2)cc1 (centres undefined) | inconclusive [falling, single point] | –
Cc1ccc(S(=O)(=O)C2(C(=O)Nc3ccc(C(C)C)cc3)CC2)cc1 | inconclusive [falling, partial curve, poor fit] | –
COc1ccc(/C=C/c2nc(C#N)c(N3CCCCCC3)o2)cc1OC | inconclusive [falling, single point] | –
CCc1ccc(Nc2ncnc3sc4c(c23)CCCC4)cc1 | – | inactive: 0.942%
CCCN(C(=O)c1cc2c(=O)n(CC)c3ccccc3c2s1)c1ccccc1F | – | inactive: 2.52%
O=C(c1ccc(Nc2nc3ccccc3n3nnnc23)cc1)N1CCN(c2ccc(F)cc2)CC1 | – | inactive: 3.48%

SMILES | Potency | activity change, negative = inhibition
O=C(Nc1cc(-c2nc3cc(Cl)ccc3o2)ccc1Cl)c1cccc2ccccc12 | – | inactive: 15.1%
CC1CCN(c2ccc(-c3cccc(NS(=O)(=O)c4cccs4)c3)nn2)CC1 | – | inactive: -1.98%
Cc1ccc(CN2C(=O)C(=O)c3cc(Br)cc(C)c32)cc1 | inconclusive [falling, single point] | –
Cc1cccc(CSc2ncc(Cl)c(C(=O)Nc3nnc(C)s3)n2)c1 | – | inactive: -1.95%
Cc1ccc(/C=C/c2onc(C)c2S(=O)(=O)N2CCC(C(=O)Nc3cccc(C#N)c3)CC2)cc1 | – | inactive: -16%
Cn1c(-c2cccc(Br)c2)cnc1NCc1cccc(F)c1 | inconclusive [falling, full curve, poor fit] | –
Cc1ccc(OCC(=O)N(Cc2ccc(N(C)C)cc2)CC2CCCO2)cc1C (centres undefined) | inconclusive [falling, partial curve, poor fit] | –
CCCN1C(=O)c2[nH]nc(-c3ccc(F)cc3)c2C1c1ccc(O)c(OCC)c1 (centres undefined) | – | inactive: 2.04%
Cc1ccccc1Cn1c(=O)n(CCCCC(=O)NCc2ccc3c(c2)OCO3)c(=O)c2ccccc21 | inconclusive [falling, single point] | –
Cc1ccc(CSc2nc3cccnc3n2Cc2ccc(C(=O)NCc3cccs3)cc2)cc1 | – | inactive: -7.49%
Cc1ccc(Nc2nc(C(N)=O)c(NC(=O)c3ccccc3Br)s2)cc1 | inconclusive [falling, full curve, poor fit] | –
Cc1cccc(C)c1NC(=O)c1cc(S(=O)(=O)N2CCCc3ccccc32)ccc1F | inconclusive [falling, single point] | –
CCOc1ccc(NC(=O)c2cnn3c2NC(C)=C(C(=O)Nc2ccc(Cl)cc2)C3c2ccc(OC)c(OC)c2)cc1 (centres undefined) | inconclusive [falling, partial curve, poor fit] | –
CC1CCN(S(=O)(=O)c2ccc3nc(Nc4cccc(F)c4)ccc3c2)CC1 | inconclusive [falling, single point] | –
CC(=O)c1ccc(NC(=O)CSc2nnc3c(n2)[nH]c2ccccc23)cc1 | inconclusive [falling, single point] | –
COc1ccc(CNC(=O)c2cc(-c3ccc(OC)c(OC)c3)nc3n[nH]c(-c4ccc(C)cc4)c23)cc1 | active: 14.7 µM | –
O=C(CCC1N=C2c3ccccc3N=C(SCc3ccc(F)cc3)N2C1=O)N1CCN(c2ccccc2)CC1 (centres undefined) | inconclusive [falling, full curve, poor fit] | –
Clc1ccc(-c2nc3ncccn3c2Nc2ccc3c(c2)OCCO3)cc1 | inconclusive [falling, full curve, poor fit] | –
CCCc1nn2c(=O)cc(COC(=O)c3cccc(NC(=O)c4ccc(OCC)cc4)c3)nc2s1 | inconclusive [falling, single point] | –
CCCCN(CCCC)CCCNC(=O)c1cc(-c2ccc(Cl)s2)nc2ccccc12 | inconclusive [falling, single point] | –

Reference: PubChem BioAssay AID493208 (National Center for Advancing Translational Sciences (NCATS), 2011)
